In PubChem BioAssay AID1745853 (National Center for Advancing Translational Sciences (NCATS), 2022) one finds activity change, negative = inhibition data, which are given here for 29 compounds.

What all share (assay): Primary Screen for Target Class Profiling of Small Molecule Inhibitors of Methyltransferases
Assay [1] deals with Glycine N-methyltransferase (Homo sapiens) (UniProt Q14749). The following applies: purified enzyme, MTase-Glo SAH luminescence; measured here: GNMT inhibition; at 40 µM; stronger effect = lower value. The gist of the method: (§1)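 Each enzyme was reacted with SAM and its substrate, with compounds tested once at 40 uM; SAH formed was read by MTase-Glo luminescence.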
Assay [2] addresses Guanidinoacetate N-methyltransferase (Homo sapiens) (UniProt Q14353). The following applies: purified enzyme, MTase-Glo SAH luminescence; measured here: GAMT inhibition; at 40 µM; stronger effect = lower value. The gist of the method:
as §1

Assay [3] concerns the target Histamine N-methyltransferase (Homo sapiens) (UniProt P50135). The following applies: purified enzyme, MTase-Glo SAH luminescence; measured here: HNMT inhibition; at 40 µM; stronger effect = lower value. The method in brief: as §1
Assay [4] concerns the target Nicotinamide N-methyltransferase (Homo sapiens) (UniProt P40261). The conditions noted are these: purified enzyme, MTase-Glo SAH luminescence; measured here: NNMT inhibition; at 40 µM; stronger effect = lower value. The gist of the method: as §1
Assay [5] has as its target Phenylethanolamine N-methyltransferase (Homo sapiens) (UniProt P11086). The conditions noted are these: purified enzyme, MTase-Glo SAH luminescence; measured here: PNMT inhibition; at 40 µM; stronger effect = lower value. The method in brief: as §1

The other results are listed elsewhere or left out. Shown are side measurements of this screen, not its main read-out; they come without a call.
On the % scale 0 is the no-effect control and ±100 the full control effect.

On to `CCc1cccc(NS(=O)(=O)c2cc3[nH]c(=O)[nH]c3cc2C)c1`, for which the activity change, negative = inhibition in assay [1] was 10.3%; in assay [2], 1.22%; in assay [3] it was 1.8%; in assay [4] it was -6.04%; in assay [5] it was -0.278%.

For `COCCCc1sc(-c2ccccc2)nc1C(=O)Nc1ccccc1-c1nc2cc(CN3CCCC3)cnc2s1`, the activity change, negative = inhibition in assay [1] was 4.27%; in assay [2] it was -2.38%; in assay [3], 8.05%; in assay [4] it was -10.9%; in assay [5], 5.67%.

Take `COc1ccc(F)cc1-c1cccc(C(=O)NCCNC(=O)c2ccccc2Cl)c1`: the activity change, negative = inhibition in assay [1] was -3.85%; in assay [2] it was 0.212%; in assay [3] it was 3.06%; in assay [4] it was -4.55%; in assay [5] it was -2.84%.

Regarding `Cc1cc2c(cc3n2CC(C)(C(=O)NC2CCCCCC2)N(Cc2ccc(F)cc2)C3=O)o1` (stereo not given), the activity change, negative = inhibition in assay [1] is 0.802%; in assay [2], 0%; in assay [3], 3.94%; in assay [4], -1.69%; in assay [5], 0.253%.

With `CCN1CCN(C(=O)c2ccc3nc(-c4cccnc4)oc3c2)CC1`, the activity change, negative = inhibition in assay [1] is -6.55%; in assay [2], -8.7%; in assay [3] it was -3.77%; in assay [4] it was -11.5%; in assay [5], -6%.

As for `COc1cccc(S(=O)(=O)N2CCCC(Cc3nncn3C)C2)c1` (stereo not given), the activity change, negative = inhibition in assay [1] was -14.6%; in assay [2], -7.71%; in assay [3], 0.606%; in assay [4], -14.3%; in assay [5], -12.3%.

On to `O=C(CCc1nnc2n(Cc3ccccc3Cl)c(=O)c3ccccc3n12)NCc1cccnc1`, for which the activity change, negative = inhibition was -10.6% in assay [1]; 0.755% in assay [2]; 1.01% in assay [3]; -4.57% in assay [4]; -2.57% in assay [5].

In the case of `COCCNC(=O)C1(C)Cn2c(nc3ccccc32)C(=O)N1CCc1ccc(Cl)cc1` (stereo not given), the activity change, negative = inhibition in assay [1] was 0.083%; in assay [2] it was 2.06%; in assay [3], 8.73%; in assay [4], 11.8%; in assay [5], 3.17%.

For `CN(c1cc(=O)c2ccnc(-c3ccc(F)c(Cl)c3)c2o1)C1CCOCC1`, the activity change, negative = inhibition in assay [1] is -26.8%; in assay [2], -13.2%; in assay [3] it was -20.5%; in assay [4] it was -33%; in assay [5] it was 0.768%.

For `COc1ccccc1-c1cccc(C(=O)N2CCN([S+](=O)([O-])c3c(C)noc3C)CC2)c1`, the activity change, negative = inhibition is -4.21% in assay [1]; -5.82% in assay [2]; -1.78% in assay [3]; -9.63% in assay [4]; -17% in assay [5].

Turning to `CC1(C(=O)NC2CCCCCCC2)Cc2ccccc2C(=O)N1C1CCCCCC1` (stereo not given), the activity change, negative = inhibition in assay [1] stood at 4.73%; in assay [2] it was 1.82%; in assay [3] it was 7.84%; in assay [4], 4.46%; in assay [5], 1.59%.

Take `CCCN1C(=O)c2c(C(=O)NCc3ccc(C)cc3)ncn2CC1(C)C(=O)NCc1ccc(OC)cc1` (stereo not given): the activity change, negative = inhibition in assay [1] is 4.07%; in assay [2] it was 0.827%; in assay [3], 5.45%; in assay [4], 10.6%; in assay [5], 10.2%.

Consider `Cn1cnnc1CC1CCNC1` (stereo not given), for which the activity change, negative = inhibition in assay [1] was -1.59%; in assay [2], 2.12%; in assay [3] it was -4.02%; in assay [4], 0.081%; in assay [5] it was -0.138%.

`CCCn1c(=O)c2ccc(C(=O)NC(C)C)cc2n2c(SCC(=O)Nc3ccc(C)cc3C)nnc12`: the activity change, negative = inhibition came to 0.411% in assay [1]; 2.62% in assay [2]; 3.25% in assay [3]; 11.9% in assay [4]; 2.56% in assay [5].

On to `CCN1C(=O)c2cc(C(=O)NCc3cccc(Br)c3)nn2CC1(C)C(=O)NC1CCCC1` (stereo not given), for which the activity change, negative = inhibition in assay [1] was 5.5%; in assay [2], 0%; in assay [3] it was -3.33%; in assay [4], -1.41%; in assay [5], 0.386%.

In the case of `COc1ccc(-c2n[nH]n3c2nc(=O)c2ccc(C(=O)NCCCc4ccccc4)cc23)cc1`, the activity change, negative = inhibition is -8.91% in assay [1]; 6.83% in assay [2]; -0.707% in assay [3]; -1.24% in assay [4]; -6.67% in assay [5].

In the case of `Cn1nc2n(c1=O)CCN(C1CCSCC1)CC2`, the activity change, negative = inhibition in assay [1] is -7.13%; in assay [2], -9.37%; in assay [3] it was -3.69%; in assay [4] it was -17.1%; in assay [5], -12.2%.

For `O=C(O)c1cccc(C2CCCN(C(=O)c3c(F)cccc3Cl)C2)c1` (stereo not given), the activity change, negative = inhibition in assay [1] is -2.95%; in assay [2] it was -3.47%; in assay [3] it was -0.781%; in assay [4] it was -4.48%; in assay [5], -1.56%.

Turning to `CS(=O)(=O)N(CC(=O)NCC1CC1)c1cc(C(F)(F)F)ccc1Cl`, the activity change, negative = inhibition was -1.71% in assay [1]; -5% in assay [2]; 0.631% in assay [3]; -17.9% in assay [4]; -3.67% in assay [5].

With `CCOC(=O)C1=C(CN2CCn3cccc3C2C)NC(=O)NC1c1cccc(OC)c1OC` (stereo not given), the activity change, negative = inhibition in assay [1] was -1.49%; in assay [2], 1.66%; in assay [3], 3.25%; in assay [4], 10%; in assay [5] it was 2.29%.

`CC(C)c1nnc(C2CN(C(=O)c3ccc4ccccc4n3)CC23CCOCC3)o1` (stereo not given): the activity change, negative = inhibition is -1.43% in assay [1]; -2.48% in assay [2]; 0.079% in assay [3]; -0.723% in assay [4]; 2.52% in assay [5].

For `CC(C)CCNC(=O)C1(C)Cn2nc(C(=O)N3CCN(C)CC3)cc2C(=O)N1C` (stereo not given), the activity change, negative = inhibition in assay [1] is 7.19%; in assay [2], 0.392%; in assay [3], 3.48%; in assay [4], 4.88%; in assay [5], -0.455%.

For the compound `COc1cc2c(NC3CCN(C(C)C)CC3)nc(N3CCC(F)(F)CC3)nc2cc1OCCCN1CCCC1`, the activity change, negative = inhibition is 1.46% in assay [1]; 18.9% in assay [2]; -80.2% in assay [3]; -17.6% in assay [4]; -6.37% in assay [5].

`CC(C)Cn1c(=O)c2ccc(C(=O)NC(C)C)cc2n2c(=O)n(CC(=O)NC(C)C)nc12`: the activity change, negative = inhibition is -4.8% in assay [1]; -2.81% in assay [2]; -1.62% in assay [3]; -1.94% in assay [4]; -4.51% in assay [5].

With `COC1CCN(CC2CCCCCN2C(=O)c2ccoc2)CC1` (stereo not given), the activity change, negative = inhibition is 1.14% in assay [1]; 2.92% in assay [2]; 2.15% in assay [3]; -3.28% in assay [4]; 19.3% in assay [5].

With `CCc1cc2c(cc3n2CC(C)(C(=O)NC2CCCCCC2)N(C(C)CCc2ccco2)C3=O)s1` (stereo not given), the activity change, negative = inhibition in assay [1] is -11.3%; in assay [2], 0%; in assay [3], -0.496%; in assay [4], -17.3%; in assay [5] it was -2.62%.

Take `CC#C[C@]1(O)CC[C@H]2[C@@H]3CCC4=CC(=O)CCC4=C3[C@@H](c3ccc(N(C)C)cc3)C[C@@]21C`: the activity change, negative = inhibition in assay [1] is -3.98%; in assay [2], 7.91%; in assay [3], 9.18%; in assay [4], -15.8%; in assay [5] it was -7.12%.

On to `O=C1COCC2(CN1)CN(C(=O)c1ccc(Cl)cc1)C2`, for which the activity change, negative = inhibition in assay [1] is -0.26%; in assay [2], -6.43%; in assay [3], 0.417%; in assay [4] it was -5.41%; in assay [5], -5.31%.

In the case of `C[C@@H]1O[C@@H](O[C@H]2[C@H](O[C@H]3[C@H](O[C@H]4CC[C@@]5(C=O)C(CC[C@]6(C)C5CC=C5C7CC(C)(C)C[C@@H](O)[C@]7(C)CC[C@]56C)C4(C)C)O[C@H](C(=O)O)[C@@H](O)[C@@H]3O)OC[C@@H](O)[C@@H]2O)[C@H](O)[C@H](O)[C@H]1O` (stereo not given in full), the activity change, negative = inhibition was 0.886% in assay [1]; 1.07% in assay [2]; 7.53% in assay [3]; -12.2% in assay [4]; 0.326% in assay [5].
